Source: the supplement of paper PMC4967469

Assays:
Test in all cases: Viability of human cancer cell lines after 72 h of drug (GDSC screen)
[1] = compound: CC(=O)Nc1cccc(-n2c(=O)n(C3CC3)c(=O)c3c(Nc4ccc(I)cc4F)n(C)c(=O)c(C)c32)c1 [Trametinib]; settings: top dose 1 µM
Experimental: (§1)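 Human cancer cell lines in 384-well plates, medium with 10% serum, drug for 72 h over a 256-fold dose range (nine 2-fold or five 4-fold steps up to the top dose). Adherent lines were fixed and stained with the nucleic acid dye Syto60, suspension lines read with resazurin; signal relative to control wells, capped at 0 and 100%. One two-parameter sigmoid per drug and line, fitted in a mixed model over all curves with the slope shared within a line.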

[2] = compound: CCNC(=O)C[C@@H]1N=C(c2ccc(Cl)cc2)c2cc(OC)ccc2-n2c(C)nnc21 [I-BET-762]; settings: top dose 20 µM; top dose inferred
Experimental: as §1

[3] = compound: CCc1cncnc1N1CCN(Cc2nc3ccc(C(F)(F)F)cc3[nH]2)CC1 [PF-4708671]; settings: top dose 10 µM; top dose inferred
Experimental: as §1

[4] = compound: COc1cc2nccc(Oc3ccc(NC(=O)Nc4cc(C)on4)c(Cl)c3)c2cc1OC [AV-951]; settings: top dose 0.128 µM; top dose inferred
Experimental: as §1

[5] = compound: Nc1ccccc1NC(=O)c1ccc(CNC(=O)OCc2cccnc2)cc1 [MS-275]; settings: top dose 5 µM; top dose inferred
Experimental: as §1

[6] = compound: O=C(NC(COc1ccc2[nH]c(=O)[nH]c2c1)c1ccccc1)c1cccn(Cc2ccc(F)c(F)c2)c1=O [KIN001-244]; settings: top dose 20 µM; top dose inferred
Experimental: as §1

[7] = compound: CCN1CCN(Cc2ccc(NC(=O)c3ccc(C)c(/C=C/c4cnc5[nH]ccc5c4OC)c3)cc2C(F)(F)F)CC1 [HG-6-64-1]; settings: top dose 5.12 µM; top dose inferred
Experimental: as §1

Cell Line | AUC [1] | IC50 [1] [µM] | AUC [2] | IC50 [2] [µM] | AUC [3] | IC50 [3] [µM] | AUC [4] | IC50 [4] [µM] | AUC [5] | IC50 [5] [µM] | AUC [6] | IC50 [6] [µM] | AUC [7] | IC50 [7] [µM]
MOLT-13 (T-cell lymphoblastic leukaemia, suspension) | 0.171 | 0.00746 | 0.464 | 1.01 | 0.964 | > 10 | 0.971 | > 0.128 | 0.498 | 0.309 | 0.903 | > 20 |  | 
MSTO-211H (mesothelioma, adherent) |  |  | 0.99 | > 20 | 0.991 | > 10 | 0.99 | > 0.128 | 0.749 | 1.49 | 0.991 | > 20 | 0.991 | > 5.12
MY-M12 (leukaemia, suspension) |  |  | 0.518 | 1.41 | 0.918 | > 10 | 0.626 | 0.0187 | 0.559 | 0.463 | 0.447 | 0.881 | 0.168 | 0.0264
NB6 (neuroblastoma, adherent) |  |  | 0.845 | 19.7 | 0.972 | > 10 | 0.936 | > 0.128 | 0.835 | 4.4 | 0.869 | > 20 | 0.88 | > 5.12
NB69 (neuroblastoma, adherent) |  |  | 0.885 | 17.6 | 0.932 | > 10 | 0.984 | > 0.128 | 0.729 | 1.28 | 0.875 | 15.8 | 0.681 | 0.96
NCI-H64 (small cell lung carcinoma, suspension) |  |  | 0.755 | 5.3 | 0.996 | > 10 | 0.996 | > 0.128 | 0.92 | 4.14 | 0.869 | 10.9 | 0.771 | 1.49
NCI-H510A (small cell lung carcinoma, semi-adherent) |  |  | 0.93 | > 20 | 0.975 | > 10 | 0.986 | > 0.128 | 0.659 | 0.826 | 0.883 | 18.3 | 0.946 | > 5.12
NCI-H748 (small cell lung carcinoma, suspension) |  |  | 0.772 | 9.9 |  |  | 0.925 | > 0.128 | 0.344 | 0.102 |  |  | 0.956 | > 5.12
NCI-H1963 (small cell lung carcinoma, suspension) |  |  | 0.991 | > 20 | 0.991 | > 10 |  |  | 0.611 | 0.604 | 0.96 | > 20 | 0.963 | > 5.12
NCI-H2171 (small cell lung carcinoma, suspension) |  |  | 0.971 | > 20 |  |  | 0.991 | > 0.128 | 0.654 | 0.781 | 0.951 | > 20 | 0.992 | > 5.12
NCI-H2196 (small cell lung carcinoma, adherent) |  |  | 0.982 | > 20 |  |  | 0.976 | > 0.128 | 0.851 | 4.15 | 0.833 | 13.9 | 0.93 | > 5.12

IC50 is the fitted dose that halves viability relative to control wells, and lower means more sensitive; fits outside the tested doses are given as limits. AUC sums up the same curve from the lowest dose to the 256-fold higher top dose: 1 means no effect, lower means more sensitive. For some assays here: A top dose marked as inferred was derived from the fitted curves, not read from the paper.
